Results as given in a collection of fitness landscapes (doi:10.1126/science.1257360).
The list shows a part of the results.

B1: PhoQ; a variant is named by its letters at X, in order, P23837 (parent)
chain: MKKLLRLFFPLSLRVRFLLATAAVVLVLSLAYGMVALIGYSVSFDKTTFRLLRGESNLFYTLAKWENNKLHVELPENIDKQSPTMTLIYDENGQLLWAQRDVPWLMKMIQPDWLKSNGFHEIEADVNDTSLLLSGDHSIQQQLQEVREDDDDAEMTHSVAVNVYPATSRMPKLTIVVVDTIPVELKSSYMVWSWFIYVLSANLLLVIPLLWVAAWWSLRPIEALAKEVRELEEHNRELLNPATTRELTSLVRNLNRLLKSERERYDKYRTTLTDLTHSLKTPLXXLQXXLRSLRSEKMSVSDAEPVMLEQISRISQQIGYYLHRASMRGGTLLSRELHPVAPLLDNLTSALNKVYQRKGVNISLDISPEISFVGEQNDFVEVMGNVLDNACKYCLEFVEISARQTDEHLYIVVEDDGPGIPLSKREVIFDRGQRVDTLRPGQGVGLAVAREITEQYEGKIVAGESMLGGARMEVIFGRQHSAPKDE

Variants of: B1
Assay: enrichment ratio after two sorts for PhoP signalling (ratio (wild type AVST 3.29)); higher = more functional
Details: with PhoP (E. coli)

Row | Variant | enrichment ratio
1 | ACRP | ≤ 0.25
2 | FKHY | ≤ 0.25
3 | HFFW | ≤ 0.25
4 | KMMK | ≤ 0.25
5 | PKWM | ≤ 0.25
6 | LEVV | ≤ 0.25
7 | SQNT | ≤ 0.25
8 | VNAK | ≤ 0.25
9 | ARKK | ≤ 0.25
10 | RVFM | ≤ 0.25
11 | GDME | ≤ 0.25
12 | NKSS | ≤ 0.25
13 | PIWL | ≤ 0.25
14 | GSNL | ≤ 0.25
15 | DWVV | ≤ 0.25
16 | IIIE | ≤ 0.25
17 | SWEA | ≤ 0.25
18 | RGLL | ≤ 0.25
19 | YSAD | ≤ 0.25
20 | DFKD | ≤ 0.25
21 | FSRF | ≤ 0.25
22 | YNMR | ≤ 0.25
23 | VAVS | ≤ 0.25
24 | EYKQ | ≤ 0.25

Row | Variant | enrichment ratio
25 | TDQP | ≤ 0.25
26 | PVVG | ≤ 0.25
27 | PPNT | ≤ 0.25
28 | DGQV | ≤ 0.25
29 | ATLD | 6.71
30 | VRNW | ≤ 0.25
31 | RYIF | ≤ 0.25
32 | QFTQ | ≤ 0.25
33 | RYSP | ≤ 0.25
34 | EEMN | ≤ 0.25
35 | TVQP | ≤ 0.25
36 | FALW | ≤ 0.25
37 | AQVI | 18.1
38 | EICI | ≤ 0.25
39 | HPFA | ≤ 0.25
40 | PEDH | ≤ 0.25
41 | RWDF | ≤ 0.25
42 | KISF | ≤ 0.25
43 | YTYT | ≤ 0.25
44 | SQST | 6.97
45 | LSRG | ≤ 0.25
46 | FDMG | ≤ 0.25
47 | FVIT | ≤ 0.25
48 | GKNC | ≤ 0.25

Row | Variant | enrichment ratio
49 | MFLL | ≤ 0.25
50 | SWFV | ≤ 0.25
51 | MPGN | ≤ 0.25
52 | FRDF | ≤ 0.25
53 | TEER | ≤ 0.25
54 | YFSC | ≤ 0.25
55 | DGEN | ≤ 0.25
56 | GWLS | ≤ 0.25
57 | DPIL | ≤ 0.25
58 | QARS | ≤ 0.25
59 | INPC | ≤ 0.25
60 | DTLH | ≤ 0.25
61 | IFNL | ≤ 0.25
62 | NQFP | ≤ 0.25
63 | FMYW | ≤ 0.25
64 | NMHK | ≤ 0.25
65 | PTFA | ≤ 0.25
66 | PCLE | ≤ 0.25
67 | LIYK | ≤ 0.25
68 | TMFT | ≤ 0.25
69 | VPGE | ≤ 0.25
70 | RQER | ≤ 0.25
71 | KDND | ≤ 0.25
72 | QDDV | ≤ 0.25

Row | Variant | enrichment ratio
73 | TSTI | 22
74 | PVWW | ≤ 0.25
75 | EGNS | ≤ 0.25
76 | IMSI | ≤ 0.25
77 | YPMH | ≤ 0.25
78 | PNWQ | ≤ 0.25
79 | HDFQ | ≤ 0.25
80 | TCYE | ≤ 0.25
81 | KAWD | ≤ 0.25
82 | DCED | ≤ 0.25
83 | DVSM | ≤ 0.25
84 | NAWI | ≤ 0.25
85 | SIHL | 2.25
86 | WVLS | ≤ 0.25
87 | NGPF | ≤ 0.25
88 | STYN | ≤ 0.25
89 | DRIG | ≤ 0.25
90 | GGPQ | ≤ 0.25
91 | VWSY | ≤ 0.25
92 | DHLC | ≤ 0.25
93 | IHDQ | ≤ 0.25
94 | DMER | ≤ 0.25
95 | KDVG | ≤ 0.25
96 | EVDM | ≤ 0.25

Row | Variant | enrichment ratio
97 | TPYC | ≤ 0.25
98 | ALNI | ≤ 0.25
99 | QEMA | ≤ 0.25
100 | SHNS | ≤ 0.25
101 | RPHH | 2.37
102 | WVRH | ≤ 0.25
103 | LEFT | 6.32
104 | WYYM | ≤ 0.25
105 | FEAK | ≤ 0.25
106 | GPYY | ≤ 0.25
107 | DPNH | ≤ 0.25
108 | HWVY | ≤ 0.25
109 | FFAD | ≤ 0.25
110 | NQMH | ≤ 0.25
111 | LTGC | ≤ 0.25
112 | HCYW | ≤ 0.25
113 | VYRM | ≤ 0.25
114 | WKWY | ≤ 0.25
115 | QRPV | ≤ 0.25
116 | TSEH | 1.16
117 | HYEC | ≤ 0.25
118 | IKTR | ≤ 0.25
119 | LRRV | ≤ 0.25
120 | VPTS | ≤ 0.25

Row | Variant | enrichment ratio
121 | LYVY | ≤ 0.25
122 | YYPV | ≤ 0.25
123 | SRTE | ≤ 0.25
124 | RMWY | ≤ 0.25
125 | KVIV | ≤ 0.25
126 | WKCR | ≤ 0.25
127 | FWEV | ≤ 0.25
128 | IEDY | ≤ 0.25
129 | KDQC | ≤ 0.25
130 | RAGS | ≤ 0.25
131 | RTIH | ≤ 0.25
132 | DHHW | ≤ 0.25
133 | DFKS | ≤ 0.25
134 | PGWD | ≤ 0.25
135 | AMIM | 29.3
136 | TKEV | ≤ 0.25
137 | HLLI | ≤ 0.25
138 | FQDC | ≤ 0.25
139 | DAMF | ≤ 0.25
140 | HNRR | ≤ 0.25
141 | VLGA | ≤ 0.25
142 | DRAS | ≤ 0.25
143 | YHSL | ≤ 0.25
144 | WSIK | ≤ 0.25

Row | Variant | enrichment ratio
145 | IFRM | ≤ 0.25
146 | KYNL | ≤ 0.25
147 | NHEC | ≤ 0.25
148 | RTTR | ≤ 0.25
149 | PHHQ | ≤ 0.25
150 | MIMC | ≤ 0.25
151 | KRTA | ≤ 0.25
152 | ERRM | ≤ 0.25
153 | FYMI | ≤ 0.25
154 | HFDA | ≤ 0.25
155 | FEFL | ≤ 0.25
156 | LKVF | ≤ 0.25
157 | AMWN | ≤ 0.25
158 | VTWG | ≤ 0.25
159 | DEPP | ≤ 0.25
160 | ITKS | ≤ 0.25
161 | SSTY | 11.3
162 | WLHT | ≤ 0.25
163 | SEFT | 8.95
164 | LGGE | ≤ 0.25
165 | HYRL | ≤ 0.25
166 | LLFP | ≤ 0.25
167 | FVMA | ≤ 0.25
168 | AMAI | 14.3

Row | Variant | enrichment ratio
169 | WPHM | ≤ 0.25
170 | IEYW | ≤ 0.25
171 | RIQH | ≤ 0.25
172 | KHQA | ≤ 0.25
173 | PASC | ≤ 0.25
174 | FYQA | ≤ 0.25
175 | LDHM | ≤ 0.25
176 | VHCW | ≤ 0.25
177 | EMIF | ≤ 0.25
178 | RKWP | ≤ 0.25
179 | LYMT | ≤ 0.25
180 | SCYV | 0.272
181 | PAHL | ≤ 0.25
182 | IHKE | ≤ 0.25
183 | RFDS | ≤ 0.25
184 | RHRQ | ≤ 0.25
185 | SQDE | ≤ 0.25
186 | EACS | ≤ 0.25
187 | NARI | ≤ 0.25
188 | PIVW | ≤ 0.25
189 | QAYM | ≤ 0.25
190 | KIVH | ≤ 0.25
191 | RMCQ | ≤ 0.25
192 | NPWI | ≤ 0.25

Row | Variant | enrichment ratio
193 | RFQI | ≤ 0.25
194 | WPFV | ≤ 0.25
195 | FNCP | ≤ 0.25
196 | GWVN | ≤ 0.25
197 | AKRH | ≤ 0.25
198 | AEDI | ≤ 0.25
199 | KQRF | ≤ 0.25
200 | DVIG | ≤ 0.25
201 | EQLG | ≤ 0.25
202 | SEYP | ≤ 0.25
203 | RNSC | ≤ 0.25
204 | YIRH | ≤ 0.25
205 | VEWV | ≤ 0.25
206 | FRSP | ≤ 0.25
207 | WKMV | ≤ 0.25
208 | FIRV | ≤ 0.25
209 | FTYA | ≤ 0.25
210 | DCLD | ≤ 0.25
211 | QNIH | ≤ 0.25
212 | EVRW | ≤ 0.25
213 | SHCP | ≤ 0.25
214 | VYWG | ≤ 0.25
215 | GSRK | 0.319
216 | LAVD | ≤ 0.25

Row | Variant | enrichment ratio
217 | KGTP | ≤ 0.25
218 | FATS | ≤ 0.25
219 | RKMF | ≤ 0.25
220 | QYLL | ≤ 0.25
221 | MIST | ≤ 0.25
222 | EACL | ≤ 0.25
223 | HMCP | ≤ 0.25
224 | RQLG | ≤ 0.25
225 | NPII | ≤ 0.25
226 | WPWH | ≤ 0.25
227 | RLSA | ≤ 0.25
228 | ALWN | ≤ 0.25
229 | EVLF | ≤ 0.25
230 | DRAG | ≤ 0.25
231 | QCFG | ≤ 0.25
232 | NQIR | ≤ 0.25
233 | ICVA | ≤ 0.25
234 | HAVE | ≤ 0.25
235 | MMTD | ≤ 0.25
236 | AVSY | 9.25
237 | NHRD | 1.6
238 | TQQS | 3.45
239 | KTIE | ≤ 0.25
240 | QLKI | ≤ 0.25

Row | Variant | enrichment ratio
241 | QVDG | 30.4
242 | LGCC | ≤ 0.25
243 | AWDW | ≤ 0.25
244 | FQDF | ≤ 0.25
245 | DHSD | ≤ 0.25
246 | FNAN | ≤ 0.25
247 | PPER | ≤ 0.25
248 | NWCS | ≤ 0.25
249 | KVLP | ≤ 0.25
250 | PKFR | ≤ 0.25
251 | YMDS | ≤ 0.25
252 | AWHQ | ≤ 0.25
253 | KYAK | ≤ 0.25
254 | KQPL | ≤ 0.25
255 | FGHG | ≤ 0.25
256 | DCCR | ≤ 0.25
257 | PIDA | ≤ 0.25
258 | QIAL | 4.65
259 | LELY | ≤ 0.25
260 | NGSW | ≤ 0.25
261 | LLSF | ≤ 0.25
262 | KYDY | ≤ 0.25
263 | KSEN | ≤ 0.25
264 | VIRI | ≤ 0.25

Row | Variant | enrichment ratio
265 | DAVA | ≤ 0.25
266 | THTF | 0.991
267 | WQGY | ≤ 0.25
268 | SHEL | ≤ 0.25
269 | QIIS | ≤ 0.25
270 | YFGS | ≤ 0.25
271 | YYWY | ≤ 0.25
272 | HMES | ≤ 0.25
273 | VLRG | ≤ 0.25
274 | WILM | ≤ 0.25
275 | IFLN | ≤ 0.25
276 | MDVV | ≤ 0.25
277 | ACTY | 3.59
278 | VDAF | ≤ 0.25
279 | RTLW | ≤ 0.25
280 | GAIP | ≤ 0.25
281 | RYVE | ≤ 0.25
282 | FYVC | ≤ 0.25
283 | YYVG | 0.542
284 | LKSE | ≤ 0.25
285 | MPAS | ≤ 0.25
286 | YKFA | ≤ 0.25
287 | HKPE | ≤ 0.25
288 | IHSI | ≤ 0.25

Row | Variant | enrichment ratio
289 | MHLQ | ≤ 0.25
290 | SKHD | ≤ 0.25
291 | GMWL | ≤ 0.25
292 | PADA | ≤ 0.25
293 | HTWM | ≤ 0.25
294 | RRHN | ≤ 0.25
295 | HNIP | ≤ 0.25
296 | PAAQ | ≤ 0.25
297 | IIGK | ≤ 0.25
298 | KVGD | ≤ 0.25
299 | RSED | ≤ 0.25
300 | QITD | ≤ 0.25
301 | YNQY | ≤ 0.25
302 | AQAI | 4.81
303 | NEPL | ≤ 0.25
304 | LIVY | ≤ 0.25
305 | QQYS | 6.64
306 | PRCY | ≤ 0.25
